Assay results taken from the supplement of paper PMC3334620.
The full ranking holds about 33,000 sequences; the median of “E-score (-0.5 to 0.5)” is about -0.021, and the highest 2% start at about 0.32. The list shows a part of the results.

target: T1, Zap1 (UniProt P47043); experiment: PBM E-score (8-mer binding enrichment) (E-score (-0.5 to 0.5)); higher = stronger / more preferred TF binding; most listed sequences are background and not binding sites; conditions: protein concentration: 200 nM; construct: GST-full length
T1 sequence: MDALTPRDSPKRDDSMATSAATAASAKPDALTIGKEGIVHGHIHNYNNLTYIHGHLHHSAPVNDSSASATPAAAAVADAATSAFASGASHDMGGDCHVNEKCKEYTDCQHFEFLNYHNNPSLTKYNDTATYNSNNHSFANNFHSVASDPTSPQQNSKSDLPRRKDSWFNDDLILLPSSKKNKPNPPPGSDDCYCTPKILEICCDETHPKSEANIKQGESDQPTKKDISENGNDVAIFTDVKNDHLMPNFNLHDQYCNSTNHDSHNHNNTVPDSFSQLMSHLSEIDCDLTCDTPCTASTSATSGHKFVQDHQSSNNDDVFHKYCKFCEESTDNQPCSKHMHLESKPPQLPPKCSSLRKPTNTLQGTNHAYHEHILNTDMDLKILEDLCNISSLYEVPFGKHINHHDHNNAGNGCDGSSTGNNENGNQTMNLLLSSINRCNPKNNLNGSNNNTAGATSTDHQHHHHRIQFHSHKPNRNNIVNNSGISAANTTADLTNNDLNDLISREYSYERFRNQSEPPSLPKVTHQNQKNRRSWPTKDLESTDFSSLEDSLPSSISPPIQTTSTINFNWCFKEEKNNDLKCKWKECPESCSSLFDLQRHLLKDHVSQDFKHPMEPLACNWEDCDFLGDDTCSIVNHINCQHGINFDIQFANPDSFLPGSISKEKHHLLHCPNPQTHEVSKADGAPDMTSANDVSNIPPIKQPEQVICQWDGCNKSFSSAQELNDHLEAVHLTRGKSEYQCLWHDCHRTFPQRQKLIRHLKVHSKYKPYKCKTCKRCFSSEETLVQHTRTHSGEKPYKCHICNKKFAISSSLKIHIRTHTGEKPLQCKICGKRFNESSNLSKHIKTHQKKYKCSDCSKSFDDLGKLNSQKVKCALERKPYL
Outline: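 GST-tagged yeast TFs (full-length or DNA-binding domain) were made by PURExpress in vitro transcription/translation and applied at about 100-200 nM to universal all-10-mer Agilent arrays. The arrays were made double-stranded by primer extension, on fresh or once-stripped slides. Bound protein was detected with fluorescent anti-GST, and scans were normalised with masliner. Each ungapped eight-base word, pooled with its reverse complement, received an E-score (modified Wilcoxon-Mann-Whitney statistic) from the Universal PBM Analysis Suite.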

Sequence	PBM E-score
AGGTCTAT	0.0564
AGATCAAT	0.0157
CTATATGC	-0.045
CGACGCTA	-0.0971
AATTTGAA	0.0837
AGCCGAGG	0.0398
GATCTAGC	-0.101
CCGATAAG	-0.137
ACATGTTA	0.0859
CTAGTATC	0.0553
CATAAGCA	-0.0662
TAACACCA	0.0451
AACATACT	0.0307
AGCCTTAG	-0.0136
ACATTATG	-0.0663
AGGTGTGC	-0.087
GATTGAAA	0.0824
CCCGTGCA	-0.107
CCTCAGAG	0.034
ACGACAGT	-0.186
AATACTCA	0.0232
TACGCGCA	-0.0356
CGAACATC	0.0222
AGTCTGGC	-0.274
GTCCCAGA	-0.0513

Sequence	PBM E-score
AGTGGAGA	-0.0607
CTCACGAC	-0.141
CCCAAAAG	0.199
AAGGCTGG	-0.279
ATAGTGGC	-0.146
ATAGGGGG	-0.314
CTGGATCC	0.0142
AGAAGGCG	-0.28
GGGTGGGA	0.141
AATACGGT	0.192
GAACTCTC	-0.202
GATCCTTA	-0.0517
CACCAAAC	0.145
ACACGCAT	-0.0553
ATGCGCTG	-0.262
ATTACTTG	0.168
CCCGTGGA	-0.0527
CCCCCCAA	-0.371
GAGGAACA	0.0172
CCGCCGTA	-0.0131
GCGCCTAC	-0.202
CTGTGACC	0.269
AACCAGGA	0.153
GTGACCAC	0.344
CTACCATA	0.2

Sequence	PBM E-score
CCTAGACC	-0.0621
TAGCAAAA	0.0555
CGTGTAAA	-0.127
AAAAGCTC	-0.194
CTATAGAG	-0.0425
CCTTGGTC	0.0233
CGCCACGC	-0.12
CTAGTCTA	-0.0327
TCCCTGAA	-0.136
AAATTCGT	0.107
AACTCTAT	-0.138
ACTACTAA	0.0945
CCCGGTAA	0.204
AATCTTTA	0.0848
ACCAGTTG	0.122
CGATTGCC	-0.325
CGCCGCAA	-0.00982
AGTGCACG	-0.151
CAATATGC	-0.126
AGGTTTTA	0.212
ATCGCGTC	-0.135
CGCTCCTA	-0.155
ACTTGACT	-0.056
AGCAAAAG	-0.146
CCTAGAAA	0.174

Sequence	PBM E-score
CTCGATAC	0.18
AAGTGTAT	-0.245
CCTATCAA	0.0212
CAGCGGCG	-0.0372
TACTTAAA	0.066
CGCAGGAA	-0.246
TGTAAAAA	0.253
AACGCTGA	-0.155
CAGGATGA	-0.152
AACTAGCT	-0.114
ATGCGTTC	-0.0993
ATCGGAGA	-0.0774
GAACGGCC	0.0134
AGTGCTAG	-0.104
ACTACCCC	0.215
GTGAACAA	0.202
AATCTGTC	-0.13
ACGATACA	-0.0802
ACGCTTGC	-0.192
AAAGACGC	0.013
AAACAGGG	0.122
AAGTCCTA	-0.0865
ACCCCGAA	0.384
TATCTCCA	0.0267
CTATACAC	-0.224

Sequence	PBM E-score
CTACTTGC	-0.17
AGAGGACG	-0.0182
CCTGCCAA	-0.219
GGAGTAAA	0.214
ATCGCGCC	0.0143
AACAGCTT	-0.219
GGTTAGGA	0.296
AACCATAT	0.232
CGGAGCGA	-0.0718
CAAGTGGC	0.0655
GCCAAGAA	-0.0936
TCTCAAAA	0.169
ATTCGGGG	0.13
ATAAGCTG	-0.0738
CACCTGAC	0.0764
CGGCTCCC	-0.0521
CGCGCTTC	-0.0795
ACTCAGAG	0.11
AGACTCAT	-0.125
TAGACATA	0.0776
CGCACAAA	0.01
ACGAACCT	0.164
ATTCGGAA	0.0178
CTAGTATA	-0.0945
AGGGTACT	0.441

Sequence	PBM E-score
ATCCAGCG	-0.0984
GCACCGTA	0.0526
GAAGCCTC	-0.16
TGAGTCCA	-0.00518
AATGATGT	0.022
GCCTTACC	0.0234
AGTTCCGG	-0.0478
AACTACAA	0.226
GGTGCGGA	0.00841
ATGTAACC	0.395
CAGACAAC	0.0296
CTCTTTCC	-0.0799
ACACGGAG	-0.162
CCTACTGA	0.0949
ACTCGGTG	-0.113
ATAGCCTC	-0.196
AAACTTGG	0.124
TGTCAACA	-0.0648
GGGTTTCA	0.103
GCCGGATA	-0.106
CGCGCTAC	0.115
GGTCCCGA	-0.0811
CAGCTTTA	0.0154
AGCGCCTA	-0.0979
CGGGTGTC	0.169

Sequence	PBM E-score
ACTAGCCA	-0.0097
AAGACTCC	-0.191
TAAGCCCA	0.0636
AACGTCCC	-0.133
CCAGCTAC	-0.0949
CGATCGCC	-0.0746
CACGCTAC	-0.151
AAAGGAGC	-0.271
GAAGTACA	-0.0897
GGGTCGGA	-0.0652
ACTGGTGG	-0.0589
GAACCTCA	0.189
CGAGTGTC	-0.0163
GTGGACAA	0.126
AAGGGTCC	0.274
CTATTACA	0.046
GGACACCC	0.212
GCAAGCGC	-0.276
ACGAAAGT	0.11
AAATGAGT	0.129
AACCAATC	0.26
TGGACCCA	-0.0626
